Here are results for 96 compounds from PubChem BioAssay AID1159614 (National Center for Advancing Translational Sciences (NCATS), 2016).

Structures are written as SMILES. Out of some 45,000 compounds screened, about 65 (0.1%) were called active. The call rests on the fitted dose curve; in most records, active means well fitted activation curve with a large enough effect; inconclusive means small, poorly fitted or top-dose-only effect; inactive means no such curve, though single readings can be large or run the other way. Some of the results follow.
Potency means the concentration at half of the fitted maximal effect.

UniProt P54803, sequence (P54803 whole entry, looked up): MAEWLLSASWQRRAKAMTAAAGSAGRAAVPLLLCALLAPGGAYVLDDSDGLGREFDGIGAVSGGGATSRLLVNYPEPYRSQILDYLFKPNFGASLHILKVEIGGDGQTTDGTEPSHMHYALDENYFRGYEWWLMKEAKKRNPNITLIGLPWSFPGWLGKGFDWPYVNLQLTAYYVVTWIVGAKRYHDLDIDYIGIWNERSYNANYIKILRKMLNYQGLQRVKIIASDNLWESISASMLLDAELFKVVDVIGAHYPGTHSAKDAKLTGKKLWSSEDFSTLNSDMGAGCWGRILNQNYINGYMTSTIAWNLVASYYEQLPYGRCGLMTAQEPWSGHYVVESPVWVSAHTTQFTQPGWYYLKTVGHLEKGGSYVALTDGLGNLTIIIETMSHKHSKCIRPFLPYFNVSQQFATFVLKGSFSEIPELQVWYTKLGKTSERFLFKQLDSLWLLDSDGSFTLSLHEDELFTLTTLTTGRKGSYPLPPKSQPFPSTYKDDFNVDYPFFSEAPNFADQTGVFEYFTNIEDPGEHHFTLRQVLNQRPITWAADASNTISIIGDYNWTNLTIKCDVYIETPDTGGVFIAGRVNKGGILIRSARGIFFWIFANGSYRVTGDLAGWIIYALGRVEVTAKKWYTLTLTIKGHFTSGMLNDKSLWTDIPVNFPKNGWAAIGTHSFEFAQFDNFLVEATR

In the test the target is Galactocerebrosidase (Homo sapiens) (UniProt P54803). Nature of the test: A Novel Cell-Based Assay to Identify Small Molecules for B -Galactocerebrosidase. Further: nearly all actives have a fitted effect of over 65% in size. On activation: 0% is about no effect. The settings on record: 145M-Twi-hGALC-G270D cells (Twitcher mouse brain line with human GALC G270D), HMU-beta-Gal fluorescence, 48 h; series mostly up to 57.5 µM; activation: at the top concentration. The gist of the method:
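Fluorescence readout: HMU-β-gal cleavage by mutant GALC (0.1 mM final, citrate/phosphate pH 5.2 with 1 mg/mL taurocholate), stopped with carbonate/bicarbonate plus Triton X-100. Cells: murine Twitcher 145M-Twi expressing human G270D GALC; qHTS for activators.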
Turning to `Cc1ccccc1Nc1nn2c(=O)c3ccc(C(=O)NCC(C)c4ccccc4)cc3nc2s1` (stereo unspecified), the “activation” value was inactive: -20.3%. As to `CC1=C(c2ccc(C(C)C)cc2)S(=O)(=O)N=C1N1CCN(c2ccccc2F)CC1`, the “activation” value is inactive: -13.3%. On the same count and under the same terms, the result for `CC(C)C[C@H](N)c1nnc(SCc2ccc(Cl)cc2Cl)o1` reads inactive: -10.2%. For the compound `Cc1ccc(-c2nc(S(=O)(=O)c3ccc(F)cc3)c(N3CCN(c4ccccc4)CC3)o2)cc1`, the “activation” value was inactive: -11.8%.

Consider `CCOC(=O)c1ccccc1NC(=O)CCOc1ccccc1`, for which the “activation” value was inactive: -9.17%. `Cc1cccc(N2CCN(C(=O)NCc3noc4ccccc34)CC2)c1C`: the “activation” value is inactive: -18.7%.

As for `COc1ccc(CNC(=O)c2cc3c(=O)[nH]c4ccccc4c3s2)cc1`, the “activation” value was inactive: -9.95%.

Take `COCCCNC(=O)C1CCCN(C(=O)c2cnn(-c3ccc(F)cc3)c2-n2cccc2)C1` (stereo unspecified): the “activation” value was inactive: 0.512%. `Cc1ccn2c(Nc3ccccc3C)c(-c3ccccn3)nc2c1`: the “activation” value was inactive: -8.05%.

On to `CCN(Cc1ccccc1)C(=O)c1nc(-c2cccc(F)c2)n2c1CCCCC2`, for which the “activation” value is inactive: -3.19%. For `Cc1cc(C)c(CSc2nnc(C)n3c2cc2occc23)c(C)c1`, the “activation” value is inactive: -15.6%. As to `COc1cc(NC(=O)c2noc3c2CSc2ccccc2-3)cc(OC)c1OC`, the “activation” value is inactive: 1.91%. The same measure, in the same setting: the result for `COc1cc(C(=O)Nc2nc3nc(-c4ccccc4)cc(=O)n3[nH]2)cc(OC)c1OC` reads inactive: -7.16%; that for `Cc1ccn2c(=O)cc(CSc3nnc(NC(=O)c4ccccc4Cl)s3)nc2c1`, inactive: 0.5%; that for `O=C(NC1CCCCC1)c1cc(Nc2cccc(C(F)(F)F)c2)nc2ccccc12`, inactive: -18.6%. As for `Cc1ccc(SCc2nc(-c3ccc(C(=O)NCc4ccc(Cl)cc4)cc3)oc2C)cc1`, the “activation” value is inactive: -20.3%. On the same count and under the same terms, the value for `CCn1cc(C(=O)N2CCN(c3cc(C)ccc3C)CC2)c(=O)c2cc(S(=O)(=O)N3CCOCC3)ccc21` was inactive: 7.89%. Consider `CCn1c(=O)n(CC)c2cc(N3CCCCC3)c(NC(=O)Nc3cc(C)cc(C)c3)cc21`, for which the “activation” value is inactive: -14%. With `COc1ccc(Cl)cc1NC(=O)Cn1c(=O)n(Cc2ccco2)c(=O)c2cccnc21`, the “activation” value is inactive: -26.6%. In the case of `COc1ccccc1CNC(=O)C(=O)NCC(c1ccco1)S(=O)(=O)c1cccs1` (stereo unspecified), the “activation” value was inactive: -15%. As for `CCOc1ccc(NC(=O)C(NS(=O)(=O)c2cccc3nsnc23)c2ccccc2)cc1` (stereo unspecified), the “activation” value is inactive: -15.9%. `O=C(NC1CCCCC1)c1cc2c(Cl)nc3ccccc3c2s1`: the “activation” value was inactive: -3.47%. In the case of `O=C(CCN1CCN(CCO)CC1)N1c2ccccc2Sc2ccc(C(F)(F)F)cc21`, the “activation” value was inactive: -13.5%. On to `Cc1cccc(-c2noc(CN(C(=O)COc3ccc(Br)cc3C)C(C)C)n2)c1`, for which the “activation” value is inactive: -33%. On to `OCCCc1nc2ccccc2n1CCCCOc1ccccc1`, for which the “activation” value was inactive: 8.43%.

As to `COc1ccc(C(=O)NCCn2cc(SCC(=O)Nc3cccc(C)c3)c3ccccc32)cc1`, the “activation” value was inactive: -8.74%. With `CCOC(=O)c1c(N)n(-c2cccc(OC)c2)c2nc3ccccc3nc12`, the Potency is active: 3.98 µM. `Cc1cccc(-n2ncc3c(Nc4ccc(Oc5ccc(Cl)cc5)cc4)ncnc32)c1`: the “activation” value is inactive: -22.6%. Turning to `COc1cc(-c2nc3nc[nH]n3c2Nc2ccc(C(C)C)cc2)ccc1O`, the “activation” value was inactive: -30.1%.

For the compound `COCCc1nn2c(=O)cc(COC(=O)c3ccc(OC)c(OC)c3)nc2s1`, the “activation” value was inactive: -13.6%. Same read-out and setting: the value for `Cc1ccc(C)n1-c1c(C(=O)NCCC(C)C)sc2ncccc12` was inactive: -29.3%; that for `CCOC(=O)C1CCN(C(=O)Cn2c(=O)cc(C)c3c(C)nn(C)c32)CC1` was inactive: -8.39%. Regarding `Cc1oc2ncn(CC(C)C)c(=O)c2c1C(=O)N1CCN(c2cccc(C(F)(F)F)c2)CC1`, the “activation” value is inactive: -9.81%. Regarding `COc1cccc(NC(=O)CSC2=Nc3ccccc3C3=NC(CC(=O)NCCc4ccccc4)C(=O)N23)c1` (stereo unspecified), the “activation” value is inactive: -1.99%. As for `Cc1ccc(CNC(=O)CCCCn2c(=O)c3ccccc3n(Cc3c(C)cc(C)cc3C)c2=O)cc1`, the “activation” value was inactive: -6.35%.

Consider `COc1ccccc1N1CCN(C(=O)Cn2ncc3c([nH]c4ccccc43)c2=O)CC1`, for which the “activation” value is inactive: -8.13%. `CCOC(=O)c1ccccc1NC(=O)Cn1c(=O)n(Cc2nc(-c3ccccc3)no2)c(=O)c2ccccc21`: the “activation” value was inactive: -10%.

In the case of `CCc1ccc(-n2c(SCc3ccccc3F)nc3[nH]ncc3c2=O)cc1`, the “activation” value was inactive: -15.2%. As to `O=C(CCc1nc(CN2CCN(S(=O)(=O)c3ccc(F)cc3)CC2)no1)N1CCCCC1`, the “activation” value was inactive: -15.7%.

Consider `CCc1ccc(C(=O)c2cn(CC(=O)NCCc3ccc(OC)c(OC)c3)c3nc(C)ccc3c2=O)cc1`, for which the “activation” value is inactive: 3.41%. `C[C@]12C[C@H](O)[C@H]3[C@@H](CCC4=CC(=O)CC[C@@]43C)[C@@H]1CC[C@@H]2C(=O)CO`: the “activation” value was inactive: -12.9%.

Consider `O=C(c1ccc2c(c1)N(Cc1ccccc1F)C(=O)c1ccccc1S2(=O)=O)N1CCCCC1`, for which the “activation” value was inactive: -13.7%. Consider `COc1cccc(NC(=O)CSC2=Nc3ccccc3N=C(c3ccc(F)cc3)C2)c1`, for which the “activation” value was inactive: 1.13%.

`CCOCCCNC(=O)NC(C)c1c(-n2cccc2)sc2c1CCN(CC)C2` (stereo unspecified): the “activation” value was inactive: 12.2%. On the same count and under the same terms, the value for `COc1ccc(OC)c(S(=O)(=O)N2CCC(c3ccncc3)CC2)c1` was inactive: -10.5%; that for `O=c1nc2sc3ccccc3n2c(=O)n1-c1ccc(Cl)c(Cl)c1` was inactive: -15.2%. As for `O=C1c2[nH]nc(-c3ccccc3O)c2C(c2ccc(Cl)cc2)N1Cc1ccco1` (stereo unspecified), the “activation” value was inactive: -4.14%. For `Cc1ccc(C2C=C(c3ccc(Cl)cc3)Nc3nc(NS(=O)(=O)c4ccccc4)nn32)cc1` (stereo unspecified), the “activation” value was inactive: -16%. Take `CCN1CCN(C(=O)c2cnn(-c3ccc(F)cc3)c2-n2cccc2)CC1`: the “activation” value was inactive: -17.1%. With `O=C(CCC1N=C2c3ccccc3N=C(SCC(=O)Nc3ccccc3F)N2C1=O)NCc1ccccc1` (stereo unspecified), the “activation” value was inactive: -17%. With `COc1ccccc1NC(=O)Cn1c(=O)n(-c2cccc(C(C)=O)c2)c(=O)c2c3c(sc21)CN(C(C)=O)CC3`, the “activation” value was inactive: -18.9%. On to `CC(=O)Nc1ccc(S(=O)(=O)NCC2CCC(C(=O)NCCc3ccccc3)CC2)cc1` (stereo unspecified), for which the “activation” value is inactive: -19.8%. For `Cc1nn(C(=O)c2cccc([N+](=O)[O-])c2C)c(C)c1S(=O)(=O)N1CCOCC1`, the “activation” value was inactive: -7.29%. As to `CC(C)c1ccc(S(=O)(=O)c2nnn3c2nc(NCCc2ccccc2)c2sccc23)cc1`, the “activation” value is inactive: 7.45%.

Consider `CC(CCc1ccccc1)NC(=O)Cn1ncc2c3ccccc3n(Cc3ccc(F)cc3)c2c1=O` (stereo unspecified), for which the “activation” value was inactive: -11.2%. In the case of `CCCn1c(=O)c2sccc2n2c(CCCC(=O)NCCc3ccc(Cl)cc3)nnc12`, the “activation” value is inactive: -12.2%. Take `Cc1ccc(CNC(=O)c2cc3sccc3n2Cc2ccc(Cl)cc2)cc1`: the “activation” value is inactive: 11.4%. Regarding `COc1cccc(N2CC(NC(=O)C(c3ccccc3)c3ccccc3)CC2=O)c1` (stereo unspecified), the “activation” value was inactive: -17.2%. For `Cc1cc(C)cc(Oc2nc3c(C)cccn3c(=O)c2/C=C(\C#N)c2nc3ccccc3[nH]2)c1`, the “activation” value is inactive: -12.5%. For `Cc1ccc(NC(=O)CC(C)S(=O)(=O)c2ccc3c(c2)NC(=O)CO3)c(C)c1` (stereo unspecified), the “activation” value is inactive: -10.3%.

For the compound `COc1cc(-c2ccno2)ccc1S(=O)(=O)N1CCN(c2cc(C)ccc2C)CC1`, the “activation” value was inactive: -21.6%.

Turning to `COCC(=O)Oc1c(Sc2ccc(C)cc2)c(C)nn1C(C)(C)C`, the “activation” value is inactive: -24.7%. Same read-out and setting: the value for `CCO[C@H](Cc1ccc(OCCc2ccc(OS(C)(=O)=O)cc2)cc1)C(=O)O` was inactive: -11.4%; that for `COc1ccccc1/C=C/c1nc(C#N)c(N2CCCCC2)o1` was inactive: 4.53%; that for `Cc1nc2nncn2c(N2CCN(c3ccccc3)CC2)c1C` was inactive: -10.8%.

With `Cc1ccc2nc(-c3ccsc3)c(Nc3ccccc3C)n2c1`, the “activation” value is inactive: -14.1%.

Regarding `c1cnc2cc3c(cc2n1)C1CNCC3C1`, the “activation” value is inactive: -9.64%. Turning to `Cn1cc(CN(C(=O)Nc2ccc(Cl)c(Cl)c2)C2CCCCC2)c2ccccc21`, the “activation” value is inactive: -22.5%. `Cc1ccccc1Cn1c(C(=O)O)c(CNCc2cccc(F)c2)c2ccccc21`: the “activation” value is inactive: -13.1%. Regarding `COC(=O)c1scc(-c2ccccc2)c1S(=O)(=O)Nc1ccccc1`, the “activation” value was inactive: -8.06%. In the case of `COc1ccc(-n2c(/C=C/c3ccccc3F)nc3cc(OC)c(OC)cc3c2=O)cc1Cl`, the “activation” value is inactive: -10.7%. Same read-out and setting: the result for `COCCNC(=O)c1cnn(-c2ccc(C)cc2C)c1C1CCN(C(=O)OC(C)(C)C)CC1` reads inactive: 19.1%.

In the case of `Cc1ccc(N2CC(NC(=O)/C=C\c3ccc4c(c3)OCO4)CC2=O)cc1C` (stereo unspecified), the “activation” value is inactive: -22.5%. Turning to `O=C1c2ccccc2C(=O)C1(c1ccccc1)N1CCN(c2cccc(Cl)c2)CC1`, the “activation” value is inactive: -12.8%. For `Cc1ccc(NC(=O)CSc2ncc3c(n2)-c2ccccc2N(Cc2cccc(F)c2)S3(=O)=O)cc1F`, the “activation” value was inactive: -8.69%.

Consider `CCN(CC)C(=O)C1CCN(S(=O)(=O)c2ccc3c(c2)CCCN3C(C)=O)CC1`, for which the “activation” value was inactive: -18.4%. Take `Cc1ccc(-c2cc(C(F)(F)F)n3nc(C(=O)Nc4ccc(Cl)cc4Cl)cc3n2)cc1`: the “activation” value was inactive: -8.5%. On to `O=C(NCc1ccc(F)cc1)c1ccc(CSCc2cccc(Cl)c2)o1`, for which the “activation” value was inactive: -6.07%. As to `COCCNC(=O)Cc1ccc(NC(=O)N2CCCCc3ccccc32)cc1`, the “activation” value is inactive: -9.15%. The same measure, in the same setting: the value for `CCOc1cc(-c2ccc(OC(=O)c3ccccc3F)cc2)cc(=O)c2c(C)oc(C)c12` was inactive: -8.04%. `O=C(CSc1nccn1Cc1ccccc1)NCc1ccc(F)cc1`: the “activation” value is inactive: -16.1%. In the case of `CCN(Cc1ccccc1)C(=O)c1c(C)oc2ncn(C)c(=O)c12`, the “activation” value was inactive: 5.23%.

Consider `CCOc1ccc(C(=O)Nc2cc(-c3nc4ccccc4o3)ccc2C)cc1Cl`, for which the “activation” value is inactive: -9.81%.

Take `Cc1cc(C)nc(NS(=O)(=O)c2ccc(NC(=O)COc3ccc(Cl)cc3C)cc2)n1`: the “activation” value is inactive: -10.8%. For `CC1CN(C(=O)Nc2ccc(C(=O)NCCc3ccccc3)cc2)c2ccccc2S1` (stereo unspecified), the “activation” value is inactive: -7.46%. On the same count and under the same terms, the result for `COc1ccc(-n2ccnc(NCc3ccc(Cl)cc3)c2=O)cc1` reads inactive: -13.5%; that for `COc1ccc(NC(=O)CCc2nnc3n(C)c(=O)c4sccc4n23)cc1`, inactive: -12.7%; that for `Clc1cccc(N2CCN(c3nc4ccccc4n4cnnc34)CC2)c1`, inactive: -11.6%.

Regarding `COc1ccc(-n2nc3ccc(NC(=O)c4ccc(-c5cc(Cl)ccc5Cl)o4)cc3n2)cc1`, the “activation” value is inactive: -11.2%. As for `O=C(CCCCCCC(=O)Nc1ccccc1)NO`, the “activation” value was inactive: -10%.

On to `Cc1c(Cl)cccc1-c1ccc(CNc2ccc3[nH]c(=O)[nH]c3c2)o1`, for which the “activation” value was inactive: -11.8%. Regarding `Cc1ccc(CCNC(=O)c2cc3sccc3n2Cc2ccc(C)cc2)cc1`, the “activation” value was inactive: -18.4%.

As to `CCCc1cnc2c(c1SCC(=O)N(C)c1ccccc1)c(=O)n(C)c(=O)n2C`, the “activation” value was inactive: -1.95%. As for `Cc1c(Cl)ccc2sc(NC(=O)c3ccc(S(=O)(=O)N4CCCc5ccccc54)cc3)nc12`, the “activation” value was inactive: 8.62%.

Turning to `COc1cccc(NC(=O)C2CCCN(S(=O)(=O)c3c(C)[nH]c(=O)[nH]c3=O)C2)c1` (stereo unspecified), the “activation” value is inactive: 11.9%. Take `Cc1cc(C)cc(NC(=O)CCC(=O)N2Cc3ccccc3Oc3ncccc32)c1`: the “activation” value is inactive: -1.61%.
